# Data as given in the supplement of paper PMC10338343.
# ± gives the standard deviation. The entries are a selection whose mix differs from that of the whole data set.
# System: MIWI (PIWIL1) piRISC loaded with piRNA #1 (30 nt)
# Test: pre-steady-state target cleavage rate (min^-1); MIWI and MILI are mouse PIWI proteins and EfPiwi is from a freshwater sponge; tags in brackets are library labels; higher = faster piRNA-guided slicing of the target
# Conditions: guide: piRNA #1 5'p-UGAGGUAGUAGGUUGUAUAGUAUCCAGAGG; auxiliary factor: 500 nM mouse GTSF1
# Method in brief: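 The method was Cleave-'n-Seq, in which uncleaved targets from a transcribed, DNA-blocked target RNA library were sequenced after exposure to active affinity-purified piRISC carrying one synthetic guide, with or without GTSF1 partner protein. Reactions contained 0.1 nM library, 1 nM piRISC and, where present, 500 nM GTSF1 in HEPES–potassium acetate buffer at 33 °C for 0–8 or 0–960 min. Reads were normalised to depth and to weakly complementary targets, three trials were pooled, and k3 was capped at 0.0001 min^-1. The pre-steady-state cleavage rate came from a burst-and-steady-state fit.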
row,Sequence,pre-steady-state target cleavage rate
1,GGUCUGGAAACUAUACAACCUACUACCUCA,1.8 ± 0.12
2,GGAGACCAUACAAUACAACGUACUACCUCA,0.159 ± 0.029
3,GGAGACCAUACUAUACAAGCUACUACCACA,1.26 ± 0.055
4,GCUCUGGAUACUUUACAACCUACUACCUGA,0.746 ± 0.1
5,GGAGACCAUACUAUAGAACGUACUACCUCA,0.226 ± 0.03
6,GGUGUGGAUACUAUACAACCAACUACCUCA,0.17 ± 0.016
7,GGAGACCUAUGUAUACAACCUACUUGCUCA,0.0161 ± 0.0031
8,GGAGACCUAUGUAUACAUCCUACUACGUCA,0.00953 ± 0.002
9,GGAGACCUAUCUAUAGAACCUACUAGCUCA,0.00389 ± 0.0019
10,GCUCAUGGAUACUAUACAACCUACUACCUCA,1.98 ± 0.1
11,GGAGACCUAUGAUAACAACCAUGAUGGAGA [g11:g16:cont:t1A],< 0.0001
12,GGAGACCUAUGAUAUGAACCCACUACCUCA,< 0.0001
13,GGAGACCUAUCUAUACAACGUACUUCCUCA,0.0198 ± 0.0054
14,GCUCUGGAUACUAUUCAACCAACUACCUCA,0.117 ± 0.012
15,GGAGUGGAUACUAUUCAACCUACUACCUCA,1.57 ± 0.087
16,CCCUGGAUACUAUACAACCUACUACCUCA,2.52 ± 0.18
17,GGAGACCUAUCUAUACAACCUACUACGCUCA,0.915 ± 0.073
18,GGAGAGGAUAGUAUACAACCUACUACCACA,0.381 ± 0.043
19,GGAGACCAUACAAUACAUCCUACUACCUCA,0.4 ± 0.058
20,GGACUGGUUACUAUACAACCUACUACCACA,0.584 ± 0.071

row,Sequence,pre-steady-state target cleavage rate
1,GGAGACCUUACAUACAACCUACUACCUCA,0.0616 ± 0.0085
2,GGAGAGGAUACUAUACAACCUACUAGCUCA,0.303 ± 0.038
3,GGAGAGGCUACUAUACAACCUACUACCUCA,1.47 ± 0.069
4,GGAGACCAUACUUUACAACCUACUACCUCA,1.3 ± 0.087
5,GGAGUGGAAACUAUACAACCUACUAGCUCA,0.0717 ± 0.018
6,GGAGACGUUACUAUAGAACCUACUACCUCA,0.83 ± 0.059
7,GGAGACCUAUGUAUACAACCUACUACCCA,0.0026 ± 0.0023
8,GGUCUGGAUACUAUACAACCAACUAGCUCA,0.017 ± 0.0042
9,GGACUGGAUUCUAUACUACCUACUACCUCA,1.14 ± 0.12
10,GGAGAGGAUACUAUACAUCCUACUACGUCA,0.0548 ± 0.0098
11,GGAGACCUAUCUAUACAACCUACUACCCCA,0.738 ± 0.073
12,GGAGACCAUACUAUACACCCUACUACCUCA,1.46 ± 0.08
13,GGACUGGAUACUAUACAACCUACAAGCUCA,0.00319 ± 0.0019
14,CCUCUGGAUACUAUACAACCUUCUACCUCA,0.706 ± 0.04
15,GGAGACCAUACUAUACAUCCUACAACCUCA,0.68 ± 0.057
16,GGACUGGAUACUAAACAACCUAGUACCUCA,0.319 ± 0.053
17,CCUGUGGAUACUAUACAACGUACUACCUCA,0.379 ± 0.035
18,GGAGAGGAUACUAUCACAACCUACUACCUCA,1.09 ± 0.077
19,GGAGUGGAUACUAUAGUACCUACUACCUCA,1.03 ± 0.065
20,GGACUGGUAACUAUACAACCUACUACCUCA,1.21 ± 0.13
